Reference: a compilation of properties of binary mixtures (doi:10.1021/acs.jced.1c00387)
Some of these densities may be calculated back from excess volumes.

Assay: xn = mol fraction of the nth substance listed
Details: 81.5 kPa

OCCNCCO + CC(=O)[O-].CC[n+]1ccn(C)c1
mass density [kg/m3]
Details	293.15 K	303.15 K	313.15 K	323.15 K	333.15 K	343.15 K	353.15 K
x1 = 0.2	1100.4	–	–	1081.9	1075.9	1070	1064.1
x1 = 0.4	1097.2	1091.1	1085	1079	–	1067.1	1061.2
x1 = 0.6	1094.6	–	1082.5	1076.5	1070.5	1064.5	–
x1 = 0.8	–	1088.4	1082.2	1076	1069.9	1063.6	–
x1 = 1	1096.4	–	1083.5	1076.9	1070.3	1063.5	1056.6

CC(=O)[O-].CC[n+]1ccn(C)c1 + CC(C)(N)CO
x2 = 0
Details	mass density [kg/m3]
293.15 K	1102.8
303.15 K	1096.6
313.15 K	1090.5
323.15 K	1084.4
333.15 K	1078.4
343.15 K	1072.4
353.15 K	1066.5

CN(CCO)CCO + CC(=O)[O-].CC[n+]1ccn(C)c1
x1 = 1
Details	mass density [kg/m3]
303.15 K	1032.4
323.15 K	1017.1
333.15 K	1009.4
343.15 K	1001.6
353.15 K	993.7

CC(=O)[O-].CC[n+]1ccn(C)c1 + OCCNCCO
x2 = 0
Details	mass density [kg/m3]
323.15 K	1084.4
343.15 K	1072.4
353.15 K	1066.5

CC(C)(N)CO + CC(=O)[O-].CC[n+]1ccn(C)c1
mass density [kg/m3]
Details	293.15 K	303.15 K	313.15 K	323.15 K	333.15 K	343.15 K	353.15 K
x1 = 0.2	1080.9	1074.6	1068.3	1062	1055.8	1049.5	1043.4
x1 = 0.4	1051.9	1045.4	1038.9	1032.5	1026.1	–	1013.4
x1 = 0.6	1017.4	–	1003.7	–	990.2	–	976.9
x1 = 0.8	–	–	963.8	956.4	–	–	934.3
x1 = 1	934.3	925.9	917.5	909.1	900.5	891.8	883

CC(=O)[O-].CC[n+]1ccn(C)c1 + CN(CCO)CCO
mass density [kg/m3]
Details	293.15 K	303.15 K	313.15 K	323.15 K	333.15 K	343.15 K	353.15 K
x2 = 0	1102.8	1096.6	1090.5	1084.4	–	1072.4	–
x2 = 0.2	1092.2	1086.1	1079.9	1073.9	1067.9	1061.9	1056
x2 = 0.4	–	1074.4	1068.2	–	1056.1	1050.1	1044.2
x2 = 0.6	1067.7	1061.4	1055.2	1048.9	1042.8	1036.6	1030.5
x2 = 0.8	1054.8	1048.1	1041.4	1034.8	1028.2	1021.5	–
